± gives the standard deviation of the averaged measurements. Some of the results follow.
test system: PfAP2-EXP AP2 domain (GST-tagged); test: gcPBM binding intensity (ln(normalized median fluorescence intensity)); higher = stronger DNA binding
Procedure, shortened: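 Binding intensity values are the highest Masliner-normalised natural-log median intensity among replicate spots of either probe orientation. The binding step lasted 1 h in 1× PBS with 1% milk, 0.2 mg/ml BSA, 0.5% salmon testes DNA and 0.03% Triton X-100, using GST-tagged P. falciparum DNA-binding domains expressed in E. coli on an Agilent 4 × 180k array of primer-extended double-stranded 36-bp intergenic genomic probes plus negative controls. Alexa488 anti-GST antibody and a 488 nm scan detected bound protein.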

Sequence | gcPBM binding intensity (ln)
TAAAATATAAGACACACACACATATATTTATATATC [CACACA_site6248] | 8.76 ± 0.33
TACCAAATCACCCCTTGTACCCATTTTAAAATTTTC [XGTACX_site396] | 8.94 ± 0.51
TGTTTAACATTTATATGTACATATATTCACATATTA [XGTACX_site342] | 8.79 ± 0.4
TGATTTTTTTTTTTTTTTTTTTTTTTTTTAGTTTGC [CACACA_negctrl_site1057] | 7.67 ± 0.54
ACATACGAAAATTGGAAGGATAGATAAAAAGAAAAT [CACACA_negctrl_site51] | 8.89 ± 0.6
GTACAGATGTAGTATGCATGTAATTATATATAAATT [TGCATGCA_site292] | 9.06 ± 0.28
ATATAAAAAAGAGGGAGTACTTGTAACAAAATAATA [XGTACX_site8679] | 8.96 ± 0.4
ACATGTTCATAATTTTGTACATATTTTTATGAACAT [XGTACX_site3976] | 8.85 ± 0.36
ACGTAGTAGGTATTATGTACATATTTATAAGTATAA [XGTACX_site7336] | 8.63 ± 0.44
ATATATTCATTTTTATGTACGTAAATTGTAAATTGG [XGTACX_site8242] | 8.5 ± 0.071
TGCATTATTTTATGAAGTACATATGAACAAAAAATT [XGTACX_site2185] | 8.68 ± 0.3
AAAATAATAATAAAAAGTACATGTGTATATAATAAA [XGTACX_site754] | 8.97 ± 0.49
AAATTATCCAAAAATTGTACTTAAAACAACATAAAA [XGTACX_site6238] | 8.51 ± 0.3
AAAGAAGGTAAACACACACACACACCGACAAAAAAA [CACACA_site9255] | 8.7 ± 0.6
TTTCTCTTATTCCAATCTATAATAAGTATCAATATT [CACACA_negctrl_site179] | 8.46 ± 0.47
ACCATTTGTAGGTAAACACACATTATTCTTAATATC [CACACA_site5453] | 8.43 ± 0.38
AATATTAAACAAATGAAAAAAAAATATATATTATAT [CACACA_negctrl_site742] | 8.57 ± 0.36
TATGTTTTTCGGTATGCATGCATATGCTTAATAATA [TGCATGCA_site184] | 9.83 ± 0.33
TTTAATTAAAATATATGTACATATATATATATATAT [XGTACX_site4517] | 10.4
AAAATAACACAAATGGGTACATATTATATTAAATAA [XGTACX_site7027] | 8.51 ± 0.34
AATATATATATGATTATATATATATATATATATATA [GTGCAC_negctrl_site290] | 9.91 ± 0.53
TTTTTTTCGTATATTACACACTATATATAGAAATTA [CACACA_site298] | 8.56 ± 0.35

Sequence | gcPBM binding intensity (ln)
GGAGAAAAAAAAAAAAAACACACGGTACATTCAAAG [CACACA_site1503] | 8.69 ± 0.72
AAAAAATGTAAATATAAACAACCAAAGGGGGTATAC [GTGCAC_negctrl_site465] | 8.84 ± 0.49
TTATTAAAGGAAAAATGTACATATAAATGAATATGT [XGTACX_site23] | 8.62 ± 0.28
GAAAAAAAACACATTGTGCACTTTTCCTTAAGTATA [GTGCAC_site9475] | 8.68 ± 0.15
TTAAAGTATAACTGTACATGCGAGTAAAAGAATGAC [TGCATGCA_site899] | 9.57 ± 0.43
TACGTGAAGTTATATACACACATAAATATGTCTGTA [CACACA_site7463] | 8.21 ± 0.4
ATAATATTTTATGGTTGTACTTTTAGTTCTTTTTTT [XGTACX_site5756] | 8.51 ± 0.42
ATTAAATATATTTTGCGTACACAAAAAAATACGTTC [XGTACX_site3862] | 8.87 ± 0.38
AAAAAAAAAAAGCACACACACATATGCGTATATATA [CACACA_site954] | 8.49 ± 0.57
ATTACCATATTTTGTACACACATCTTTATCTCAATA [CACACA_site3217] | 9.05 ± 0.49
TAAAAATTAAAGTGTACACATATATATATATATATA [CACACA_site4781] | 10.2 ± 0.38
TATAAACCGACGAAAACACACATATGTAAATATATA [CACACA_site491] | 8.94 ± 0.59
TTTTATGTTTATGTGGTGCATGTTTTGAAGAAAATA [GTGCAC_site9616] | 9.02 ± 0.18
AAACCTATGTATATTATACACACTCCAAACTATTAT [CACACA_site8536] | 8.64 ± 0.44
CGGGGGTAGTTTTATGCACACGTTTATTAATGCTTC [CACACA_site5717] | 9.43 ± 0.61
TGAAAAACTATCAGAGTGCATATATAGCTCGATACA | 8.64 ± 0.28
ACCAATAATATACATACACACATAAATGTTTATATA [CACACA_site4328] | 8.57 ± 0.65
ACATGAATATATACACGTACATATATACATATATAT [XGTACX_site5872] | 8.51 ± 0.18
TAAAATAATATATGGTGTACACAAAAGTATAAATAA [XGTACX_site4991] | 9.13 ± 0.42
TATATATATATATTATGTACTCATTTATTATCTTTT [XGTACX_site8051] | 9.97 ± 0.13
ATATAAAAAAAATTTAGTACATATATATATATATAT [XGTACX_site8635] | 10.2 ± 0.48
AAAAAAATAATTAACACACACATGTATATCTATATA [CACACA_site3139] | 8.41 ± 0.61

Sequence | gcPBM binding intensity (ln)
ATATGATTTGGATGTAGTACATATTTTTTTATGTTT [XGTACX_site1929] | 8.56 ± 0.36
AACCAAATTTCACCATGTACATATTGATAAATATAT [XGTACX_site1374] | 8.7 ± 0.34
GCACCAAAAAAAAGACGTACAGTTATATTAAAATAG [XGTACX_site8926] | 8.825 ± 0.078
AAATGAACAAGTGGCACACACACATTCTAACTAATT [CACACA_site3203] | 8.53 ± 0.55
ATATATATATGAATCACACACAAAAAATATAGAGAT [CACACA_site3913] | 9.4 ± 0.085
TTATAAAGAAAAAATTGCTTTAAAAGAAAGATTACA [CACACA_negctrl_site960] | 8.15 ± 0.33
AAAAACAAAATTTGGAGTACAGTTATAATATTATTA [XGTACX_site5245] | 8.34 ± 0.042
TGATTATCCTTCAGGAGTACATATAATATAATATAT [XGTACX_site1479] | 8.55 ± 0.23
AATGAAAAGAAATAATAAATAAATGATGACCAGCTG [GTGCAC_negctrl_site398] | 8.74 ± 0.36
ACCTTTAATAAATACACACACATAAAAAAAATATAT [CACACA_site5086] | 9.24 ± 0.45
AATGAACAGACGAGCACACACACACCCATATATATA [CACACA_site1018] | 8.85 ± 0.35
TAATGTATTATTTAATGTACTTAAAAAATAAATAAA [XGTACX_site3296] | 8.39 ± 0.18
GGGGAGCTATCTCCTGCACACACAATTTTTTTTTTT [CACACA_site8703] | 8.89 ± 0.38
CACAAATATATACATACACACATATATACGCATATA [CACACA_site395] | 8.53 ± 0.36
TATTATATGAATAATTGTACGAAATTTAAAAGACAA [XGTACX_site7558] | 8.68 ± 0.34
ATCACTAATTTTTTTACACACCACAATTTAATTTTT [CACACA_site1186] | 8.88 ± 0.35
AAATGTGTTAATGTGCGTACACATATATATAATATT [XGTACX_site2792] | 8.52 ± 0.27
AATATATACACATGCGCACACACAAGTGGGAAATTT [CACACA_site8527] | 8.92 ± 0.45
TTTTTTTTTTTTTTTTTTATATTTCATAATTTCATT [XGTACX_negctrl_site579] | 8.18 ± 0.37
TTTATATTTCATTTGTTATTTTTCTTGGTTCTATAT [TGCATGCA_negctrl_site23] | 8.67 ± 0.11
TCATTTAAGTCATATTGAAATATGCATTATTCAAAA [CACACA_negctrl_site958] | 8.3 ± 0.33
TTTTGCCTGAACAATGCATGTTATTTTTATTTTTTT [TGCATGCA_site673] | 8.77 ± 0.43

Sequence | gcPBM binding intensity (ln)
ATATACAGAAAAAATTAAAATAAATATGCAAAACAA [CACACA_negctrl_site704] | 8.86 ± 0.32
AATATACGATTGTCATTCATACATTGTTAACATAGT [CACACA_negctrl_site1151] | 8.61 ± 0.27
ACATAGTAAATATTATGTACATAATATATACATTTA [XGTACX_site7500] | 8.46 ± 0.33
TACAATGAACATGAAACACACAAAAAAAAAAAAAAA [CACACA_site1544] | 8.27 ± 0.58
TTTACTTTTTTTATATATTATTTATTATATAATATA [CACACA_negctrl_site211] | 8.43 ± 0.39
TAAAAATGATCAAAGGGTACAGTATTAATTAAAAAA [XGTACX_site1079] | 8.63 ± 0.52
TACATATATATAATATATATATCATCATATTTTCTT [XGTACX_negctrl_site478] | 8.26 ± 0.36
CTTAAACTTTTAAATACACACATACAGACATACACA [CACACA_site6401] | 8.84 ± 0.28
ATATGTACTATACGCACACACACTCACATATTTATA [CACACA_site7510] | 9.13 ± 0.35
TTTATTTATATAATTACACACATATATACTCAAATG [CACACA_site5543] | 8.36 ± 0.33
ATAGGGTTTCTACTTTAACATTTTTGAAATATTATA [GTGCAC_negctrl_site260] | 8.44 ± 0.36
TTCTTAATTCATACCATCAAAACATTTATTCATATC [CACACA_negctrl_site43] | 8.52 ± 0.5
TATTTAGACATAACAAATAGACTAACAAAAGATTTA [GTGCAC_negctrl_site614] | 8.28 ± 0.085
ATAATAAATACACTAGTGCAAAATAATATATGTACT [GTGCAC_site9707] | 9.12 ± 0.31
TATTATAAATAAATAGAAAAAAAAATGATAAATGGA [CACACA_negctrl_site865] | 8.62 ± 0.42
TATATATACTTAGAAACACACAAAAATATTTTATAA [CACACA_site2578] | 8.59 ± 0.42
TAATTAGTTTTTACTTTTTTTTTTTTTTTTCTATAT [CACACA_negctrl_site1024] | 8.13 ± 0.46
ATAATCCTGAAACACACACACACACCCATAAATAAA [CACACA_site481] | 8.65 ± 0.59
TTATGTATATTATAAATTAATACCTTTAAATTAATA [CACACA_negctrl_site67] | 7.88 ± 0.28
TATAACTTATTTTTTAGTACATATTATAGTTCATTT [XGTACX_site8649] | 8.6 ± 0.33
TTTATTTAAAATAAGTGTACTAGAAAAATTAAGCAG [XGTACX_site4982] | 8.65 ± 0.35
